Assay results reported in a collection of fitness landscapes (doi:10.1126/science.1257360).
Some of the results follow.

B1: PhoQ; a variant is named by its letters at X, in order, P23837 (parent)
chain: MKKLLRLFFPLSLRVRFLLATAAVVLVLSLAYGMVALIGYSVSFDKTTFRLLRGESNLFYTLAKWENNKLHVELPENIDKQSPTMTLIYDENGQLLWAQRDVPWLMKMIQPDWLKSNGFHEIEADVNDTSLLLSGDHSIQQQLQEVREDDDDAEMTHSVAVNVYPATSRMPKLTIVVVDTIPVELKSSYMVWSWFIYVLSANLLLVIPLLWVAAWWSLRPIEALAKEVRELEEHNRELLNPATTRELTSLVRNLNRLLKSERERYDKYRTTLTDLTHSLKTPLXXLQXXLRSLRSEKMSVSDAEPVMLEQISRISQQIGYYLHRASMRGGTLLSRELHPVAPLLDNLTSALNKVYQRKGVNISLDISPEISFVGEQNDFVEVMGNVLDNACKYCLEFVEISARQTDEHLYIVVEDDGPGIPLSKREVIFDRGQRVDTLRPGQGVGLAVAREITEQYEGKIVAGESMLGGARMEVIFGRQHSAPKDE

Variants of: B1
Assay: enrichment ratio after two sorts for PhoP signalling (ratio (wild type AVST 3.29)); higher = more functional
Settings: with PhoP (E. coli)

Variant	enrichment ratio
YFWA	≤ 0.25
HKSD	≤ 0.25
GNVH	≤ 0.25
FRNV	≤ 0.25
PFIG	≤ 0.25
TCKT	≤ 0.25
QSIF	≤ 0.25
WFID	≤ 0.25
KLAH	≤ 0.25
LRCV	≤ 0.25
WRFV	≤ 0.25
HADD	≤ 0.25
WYST	≤ 0.25
NQST	≤ 0.25
RPCI	≤ 0.25
FVVC	≤ 0.25
GDVI	20
EIMT	≤ 0.25
SLEA	≤ 0.25
PMWA	≤ 0.25
ALVF	0.451
VAIC	≤ 0.25
IAYK	≤ 0.25
SKSM	14

Variant	enrichment ratio
FTTR	≤ 0.25
SRKW	≤ 0.25
TFIF	≤ 0.25
LLKE	≤ 0.25
YMQE	≤ 0.25
QDKH	≤ 0.25
QTVL	≤ 0.25
NWQR	≤ 0.25
DLEK	≤ 0.25
HACR	≤ 0.25
IDMT	≤ 0.25
FGDF	≤ 0.25
HTQR	≤ 0.25
EPYR	≤ 0.25
HTSY	≤ 0.25
WDRR	≤ 0.25
YYVY	≤ 0.25
WTCD	≤ 0.25
PMWT	≤ 0.25
YEDR	≤ 0.25
AIHP	≤ 0.25
DKEE	≤ 0.25
GGDH	≤ 0.25
EQCP	≤ 0.25

Variant	enrichment ratio
AVCY	0.936
HEDR	≤ 0.25
INFN	≤ 0.25
RYWG	≤ 0.25
KLYC	≤ 0.25
RGTT	≤ 0.25
TGKL	≤ 0.25
YFWG	≤ 0.25
VGHP	≤ 0.25
LAPD	≤ 0.25
STMQ	12
NTNR	≤ 0.25
DNFI	≤ 0.25
DLIR	≤ 0.25
GENF	≤ 0.25
VCRM	≤ 0.25
KRFF	≤ 0.25
FSMI	4.67
WMFE	≤ 0.25
HTHR	≤ 0.25
EQAF	≤ 0.25
GHVG	≤ 0.25
LRWE	≤ 0.25
FYPK	≤ 0.25

Variant	enrichment ratio
GFDR	≤ 0.25
MVCT	≤ 0.25
TALF	10.5
LCRP	≤ 0.25
WMSW	≤ 0.25
KCSW	≤ 0.25
LGAS	≤ 0.25
HAKQ	≤ 0.25
NELC	5.14
YAPK	≤ 0.25
QWHA	≤ 0.25
FPDH	≤ 0.25
KIRF	≤ 0.25
ARHV	≤ 0.25
NSLW	≤ 0.25
SPSE	≤ 0.25
EMAT	≤ 0.25
RATF	≤ 0.25
VMGI	≤ 0.25
DFHC	≤ 0.25
KILA	≤ 0.25
PKKH	≤ 0.25
GAWW	≤ 0.25
NPNI	≤ 0.25

Variant	enrichment ratio
THGV	1.56
ILYM	≤ 0.25
YHCF	≤ 0.25
SKQS	≤ 0.25
EVLG	≤ 0.25
WASY	≤ 0.25
AKSW	≤ 0.25
IAHA	≤ 0.25
INAY	≤ 0.25
VGYS	≤ 0.25
TRFV	≤ 0.25
HCSW	≤ 0.25
MMQE	≤ 0.25
GMMR	≤ 0.25
MPDI	≤ 0.25
QSTR	≤ 0.25
ATLI	15.7
YMCC	≤ 0.25
RTAE	≤ 0.25
MMWN	≤ 0.25
FIGA	≤ 0.25
LKTS	≤ 0.25
AVLR	7.21
FTGQ	≤ 0.25

Variant	enrichment ratio
PKMH	≤ 0.25
RMWS	≤ 0.25
PWYQ	≤ 0.25
REWV	≤ 0.25
AGFS	≤ 0.25
KQPC	≤ 0.25
YHKT	≤ 0.25
MGRY	≤ 0.25
DMHS	≤ 0.25
KCMT	≤ 0.25
VEHW	≤ 0.25
RNLY	≤ 0.25
TLYF	≤ 0.25
YKNF	≤ 0.25
QPVA	≤ 0.25
DTRI	1.89
GQVW	≤ 0.25
AHSE	≤ 0.25
RWEG	≤ 0.25
EFLQ	≤ 0.25
AYVM	≤ 0.25
DVQK	≤ 0.25
LVYY	≤ 0.25
HQGV	1.02

Variant	enrichment ratio
LCYI	0.711
EHHY	≤ 0.25
VIVG	≤ 0.25
HHSP	≤ 0.25
MWMH	≤ 0.25
AVPT	≤ 0.25
DMHV	≤ 0.25
GKQR	≤ 0.25
QLGA	≤ 0.25
RYFC	≤ 0.25
EEVA	≤ 0.25
TQWC	29.7
GIPM	≤ 0.25
EVFE	≤ 0.25
IAIC	≤ 0.25
PQAS	≤ 0.25
HYQD	≤ 0.25
TGDV	≤ 0.25
HIPV	≤ 0.25
VWTT	≤ 0.25
RTRS	≤ 0.25
MRWQ	≤ 0.25
FVDW	≤ 0.25
DCHY	≤ 0.25

Variant	enrichment ratio
AFGV	≤ 0.25
YHKF	≤ 0.25
KDLV	≤ 0.25
DLTV	≤ 0.25
YYCW	≤ 0.25
PIDP	≤ 0.25
YDLS	0.28
SYDW	≤ 0.25
VECY	≤ 0.25
ISSS	≤ 0.25
FVLP	≤ 0.25
LIMN	≤ 0.25
FCCK	4.54
DFNE	≤ 0.25
DYQE	≤ 0.25
YASN	≤ 0.25
YYKL	≤ 0.25
QSHI	15.9
YHHP	≤ 0.25
VDDF	≤ 0.25
NAIF	≤ 0.25
DSDA	≤ 0.25
YNVN	≤ 0.25
MPFW	≤ 0.25

Variant	enrichment ratio
LAML	6.38
STQA	≤ 0.25
AFVF	0.305
WCIR	≤ 0.25
TGWC	13.8
HLKA	≤ 0.25
PEIM	≤ 0.25
PLHV	≤ 0.25
GCTC	≤ 0.25
SMED	≤ 0.25
YDAR	≤ 0.25
RFHM	≤ 0.25
LSMK	≤ 0.25
MPEW	≤ 0.25
IYFM	≤ 0.25
PWIV	≤ 0.25
WRIR	≤ 0.25
SIAY	9.84
CIFI	≤ 0.25
TVIK	≤ 0.25
NTAT	≤ 0.25
EVPF	≤ 0.25
VVFI	≤ 0.25
VHQP	≤ 0.25

Variant	enrichment ratio
AWKY	≤ 0.25
FDDM	≤ 0.25
EPMI	≤ 0.25
GDDM	≤ 0.25
SATF	11.2
DDAA	≤ 0.25
LCLV	≤ 0.25
YQMS	≤ 0.25
GDMC	4.26
QGKR	≤ 0.25
LKGH	≤ 0.25
QVIV	≤ 0.25
SMEE	≤ 0.25
VQMP	≤ 0.25
DWVM	≤ 0.25
QRSV	≤ 0.25
MYHE	≤ 0.25
RTPL	≤ 0.25
FFKD	≤ 0.25
TNNA	5.22
PYRD	≤ 0.25
VGME	≤ 0.25
QAMW	≤ 0.25
QKQP	≤ 0.25

Variant	enrichment ratio
VFDW	≤ 0.25
STKA	≤ 0.25
QGQF	≤ 0.25
RWRT	≤ 0.25
YCFC	≤ 0.25
MHTQ	≤ 0.25
QITI	≤ 0.25
QFDE	≤ 0.25
AFGN	≤ 0.25
VSWL	1.26
TNTR	≤ 0.25
TYQM	11.1
QDTW	≤ 0.25
WAYR	≤ 0.25
LKLS	≤ 0.25
YLFE	≤ 0.25
YFQQ	≤ 0.25
AYNG	≤ 0.25
EDIG	≤ 0.25
FVGM	≤ 0.25
VRQM	≤ 0.25
INLF	0.354
WVCS	≤ 0.25
TQIV	1.59

Variant	enrichment ratio
QPFF	≤ 0.25
IVCH	≤ 0.25
WWFM	≤ 0.25
MHFF	≤ 0.25
CYCF	≤ 0.25
SWHR	≤ 0.25
LILA	≤ 0.25
GRIA	≤ 0.25
IEDP	≤ 0.25
FDIP	≤ 0.25
ILDN	≤ 0.25
TKQH	≤ 0.25
EAAP	≤ 0.25
WRLF	≤ 0.25
WDYE	≤ 0.25
YFCA	≤ 0.25
MWLR	≤ 0.25
VKWS	≤ 0.25
NHTC	≤ 0.25
ITQN	≤ 0.25
KFCI	≤ 0.25
KPDS	≤ 0.25
RRPN	≤ 0.25
YDAS	≤ 0.25

Variant	enrichment ratio
GQQD	≤ 0.25
KLER	0.976
FWKA	≤ 0.25
FQMF	≤ 0.25
MKFL	0.755
MKSW	≤ 0.25
NKAI	≤ 0.25
HIIR	≤ 0.25
NKHS	≤ 0.25
KAVK	≤ 0.25
HMVM	≤ 0.25
DSGK	≤ 0.25
DQWY	≤ 0.25
LWRT	≤ 0.25
DGLW	2.73
YTRD	≤ 0.25
VAIF	≤ 0.25
RHVC	≤ 0.25
